± gives the standard deviation of the averaged measurements. The list shows a part of the results.

The assay relates to PfAP2-LT AP2 domain (GST-tagged). In words: gcPBM binding intensity (ln(normalized median fluorescence intensity)); higher = stronger DNA binding. An outline of the steps: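 Probes on an Agilent 4 × 180k array were primer-extended, double-stranded and 36 bp long, taken from intergenic genomic regions, with negative controls added. GST-tagged P. falciparum DNA-binding domains from E. coli, about 25 μg on average, were applied to the array for 1 h in 1× PBS containing 1% milk, 0.2 mg/ml BSA, 0.5% salmon testes DNA and 0.03% Triton X-100. Binding intensity, obtained after Alexa488 anti-GST antibody detection and a 488 nm scan, is the highest Masliner-normalised natural-log median intensity across replicate spots of either probe orientation.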
Consider “TAATTAAAATTATCTACACACCTTTATAAATATATA [CACACA_site3928]”, for which the “gcPBM binding intensity (ln)” value came out at 8.48 ± 0.47. “CTTATTAAAATTATTTGTACACAATATGTAAAAGTA [XGTACX_site7237]”: the “gcPBM binding intensity (ln)” value worked out at 8.46 ± 0.31. Consider “AAAAAAAGTTGATACTGTACTCGTGCATTATGAATA [XGTACX_site5558]”, for which the “gcPBM binding intensity (ln)” value was found to be 8.79 ± 0.4. For “AGGTATTTTCTTGTGACACACATATATATATATATT [CACACA_site2220]”, the “gcPBM binding intensity (ln)” value was 9.26 ± 0.33.

For “TTGTATATTATATGTACACACAATAAGTTAATATAA [CACACA_site909]”, the “gcPBM binding intensity (ln)” value is 8.87 ± 0.38. As to “TTCCTTTGTCCTAACTGTACTCAAATTTATTAGTGG [XGTACX_site226]”, the “gcPBM binding intensity (ln)” value was 8.72 ± 0.49.

Consider “ATAATATATTTTTGAACACACAATATAGATTTATAT [CACACA_site7857]”, for which the “gcPBM binding intensity (ln)” value was found to be 8.66 ± 0.43. As for “AAAAATAAAATAATATGTACATATATAATATATATA [XGTACX_site4786]”, the “gcPBM binding intensity (ln)” value is 8.76 ± 0.55.

With “TATTCGAAAATTATTCAAATTATCTAACATATTATT [TGCATGCA_negctrl_site70]”, the “gcPBM binding intensity (ln)” value amounted to 8.35 ± 0.33. Consider “AATTGGAAACAACCAAAAAAATTAAAGTTGTATCCT [CACACA_negctrl_site565]”, for which the “gcPBM binding intensity (ln)” value came out at 8.53 ± 0.45. Turning to “TAATTTTTTAGACACACACACATATAAATATAAATA [CACACA_site6195]”, the “gcPBM binding intensity (ln)” value stood at 9.37 ± 0.34. “TATATCTTAATATACACACACACATATATATATATA [CACACA_site4968]”: the “gcPBM binding intensity (ln)” value was found to be 9.71 ± 0.014. In the case of “TAAATGAAAACCATTAGTACTTATACTGATAAATGT [XGTACX_site763]”, the “gcPBM binding intensity (ln)” value is 8.68 ± 0.42. Regarding “TATATAAATATATATACACACAAAAAAAAAAAAAAA [CACACA_site1406]”, the “gcPBM binding intensity (ln)” value worked out at 8.8 ± 0.45. Next, “TAAATACAAAAATGTACACACATATATATATTTTTA [CACACA_site3503]”: 8.93 ± 0.4; “TAAATTTTAATATGCACACAAAATGTTATATTAAAA [CACACA_site4366]”: 8.55 ± 0.5. With “CGGCACATTATATATACACACATATAAATATATACA [CACACA_site8086]”, the “gcPBM binding intensity (ln)” value is 9.15 ± 0.41. “TGTTTATTCTTTAAATATTATTCAAATACTACAAGT [CACACA_negctrl_site746]”: the “gcPBM binding intensity (ln)” value came out at 8.34 ± 0.54.

“AAAAAAAAAAAAAATTGTACATAATAAAAATATGGA [XGTACX_site3189]”: the “gcPBM binding intensity (ln)” value was found to be 8.55 ± 0.56. In the case of “ATACAAGAATTAAACACACACAAAATATAAATTCTT [CACACA_site3005]”, the “gcPBM binding intensity (ln)” value was determined as 9.34 ± 0.42. As to “CACAGACACGGACACACACACACACCCATATATATA [CACACA_site4354]”, the “gcPBM binding intensity (ln)” value was determined as 10.1 ± 0.32. For the sequence “AGCAACCTGAAAAAATTACTCTTTCTTAAACAAATT [XGTACX_negctrl_site266]”, the “gcPBM binding intensity (ln)” value stood at 8.44 ± 0.49. As to “ACCTGTAAAAATGTTTATATATATATATATATATAT [CACACA_negctrl_site1500]”, the “gcPBM binding intensity (ln)” value came out at 9.88 ± 0.3. For “TTAAGGATTAAGGTGTGTACATATAAATATTATATA [XGTACX_site7532]”, the “gcPBM binding intensity (ln)” value was found to be 8.78 ± 0.42. In the case of “AATATTAAATGAAAAAGTACAAACAGTCCTATATTA [XGTACX_site1926]”, the “gcPBM binding intensity (ln)” value amounted to 8.69 ± 0.48.

Regarding “ATTTATATAAAGAATGTACACACAGAAATGCACCCA [CACACA_site8715]”, the “gcPBM binding intensity (ln)” value was found to be 9.15 ± 0.35. On to “CGTATGCACAAATTATGTACTTATATATATATATAT [XGTACX_site2348]”, for which the “gcPBM binding intensity (ln)” value was 9.09 ± 0.22. Take “AAAAAAAAAAAACATACACACAAATAAATACATACA [CACACA_site6073]”: the “gcPBM binding intensity (ln)” value was determined as 9.23 ± 0.36.

Turning to “TAAATATATATATGTGTGCACTTCTTCATTTTAATA [GTGCAC_site9537]”, the “gcPBM binding intensity (ln)” value was determined as 9.07 ± 0.38. With “CGGCACATTATATATACACACATATAAATAAATACA [CACACA_site4477]”, the “gcPBM binding intensity (ln)” value amounted to 9.14 ± 0.46. In the case of “TATATATATAAGTGCACACTGAACCAAGAAAATTAT [CACACA_site3008]”, the “gcPBM binding intensity (ln)” value is 9.2 ± 0.38.

Consider “GGATTGATAAGTGGTACACACATATAGATTATAGAT [CACACA_site7367]”, for which the “gcPBM binding intensity (ln)” value stood at 9.11 ± 0.48.

For the sequence “CCATCTAAACACAACTCGAGTTGGATGTGTGAACTT [XGTACX_negctrl_site83]”, the “gcPBM binding intensity (ln)” value came to 8.98 ± 0.37. In the case of “ATATATATATATATATGTACATATTTCTCCATTTTT [XGTACX_site2869]”, the “gcPBM binding intensity (ln)” value is 9.61 ± 0.39. Next, “CATATTTTTATAAATTGTACGTATATTATATATATA [XGTACX_site1816]”: 8.59 ± 0.33. On to “TGCAATTGTAAAGGCGCACACATATATATATATATA [CACACA_site4894]”, for which the “gcPBM binding intensity (ln)” value is 10.2 ± 0.13. Regarding “GTTTTTTATAATTGTAGTACAAGAAGATATTTTTAT [XGTACX_site5443]”, the “gcPBM binding intensity (ln)” value worked out at 8.36 ± 0.36. Consider “AAACCGTGGGAGCACACACACACACCGACACATATA [CACACA_site4338]”, for which the “gcPBM binding intensity (ln)” value was 10 ± 0.28. On to “GCATTGTCCATGCGCACACACTACTAGAATAATATG [CACACA_site5932]”, for which the “gcPBM binding intensity (ln)” value worked out at 9.28 ± 0.37. Turning to “ATATATCAATATAAAAGTACAAACAAAAAATAATCA [XGTACX_site7559]”, the “gcPBM binding intensity (ln)” value turned out to be 8.95 ± 0.42. Next, “GATATATACTCCATCACACACCAAAAAGAAAAAAGA [CACACA_site7242]”: 9.11 ± 0.45; “TCCATTTATAAATTAGCATGCAATCTATGTCTGATA [TGCATGCA_site1045]”: 8.7 ± 0.33.

Consider “ATCAAAAGAAAACACACACACATACAGATATATATA [CACACA_site5974]”, for which the “gcPBM binding intensity (ln)” value amounted to 9.88 ± 0.29. For the sequence “AATTAATGGGTACATACACACATATATACCTACATA [CACACA_site4572]”, the “gcPBM binding intensity (ln)” value stood at 9.07 ± 0.33. For the sequence “TAAATACTAATATGTACACACATATAGATATAGATT [CACACA_site7247]”, the “gcPBM binding intensity (ln)” value was 8.96 ± 0.38.

Source of the values: the supplement of paper PMC11417369.
